In the antibiotic and cytotoxicity screens of Wong et al. (2023):
This is one part of the list.

Key:
HSkMC = human skeletal muscle cells; experiment: cytotoxicity call (relative viability < 0.9); conditions: 10 µM
HepG2 = experiment: cytotoxicity call (relative viability < 0.9); conditions: 10 µM
S. aureus RN4220 = experiment: growth inhibition call (relative growth <= 0.2); conditions: 50 µM

C[C@@H]1CN([C@@H](C)CO)C(=O)Cc2cc(NC(=O)Cn3cnnn3)ccc2O[C@H]1CN(C)S(C)(=O)=O
inactive: cytotoxicity call (HSkMC) | cytotoxicity call (HepG2) | growth inhibition call (S. aureus RN4220)

CCCNC(=O)Nc1ccc2c(c1)C(=O)N(C)C[C@@H](OC)[C@@H](C)CN(Cc1ccc(-c3ccccn3)cc1)[C@H](C)CO2
inactive: cytotoxicity call (HSkMC) | cytotoxicity call (HepG2) | growth inhibition call (S. aureus RN4220)

COc1ccc2c3c(n(c2c1)C)[C@@H](CO)N(C[C@]13CN(C1)C(=O)Nc1cccc(c1)F)S(=O)(=O)C
inactive: cytotoxicity call (HSkMC) | cytotoxicity call (HepG2) | growth inhibition call (S. aureus RN4220)

Cc1noc(C)c1NC(=O)N(C)C[C@@H]1OCCCC[C@H](C)Oc2ccc(NC(=O)c3ccccc3)cc2C(=O)N([C@H](C)CO)C[C@H]1C
inactive: cytotoxicity call (HSkMC) | cytotoxicity call (HepG2) | growth inhibition call (S. aureus RN4220)
